Source: a collection of fitness landscapes (doi:10.1126/science.1257360)
This is one part of the list.

B1: PhoQ; a variant is named by its letters at X, in order, P23837 (parent)
chain: MKKLLRLFFPLSLRVRFLLATAAVVLVLSLAYGMVALIGYSVSFDKTTFRLLRGESNLFYTLAKWENNKLHVELPENIDKQSPTMTLIYDENGQLLWAQRDVPWLMKMIQPDWLKSNGFHEIEADVNDTSLLLSGDHSIQQQLQEVREDDDDAEMTHSVAVNVYPATSRMPKLTIVVVDTIPVELKSSYMVWSWFIYVLSANLLLVIPLLWVAAWWSLRPIEALAKEVRELEEHNRELLNPATTRELTSLVRNLNRLLKSERERYDKYRTTLTDLTHSLKTPLXXLQXXLRSLRSEKMSVSDAEPVMLEQISRISQQIGYYLHRASMRGGTLLSRELHPVAPLLDNLTSALNKVYQRKGVNISLDISPEISFVGEQNDFVEVMGNVLDNACKYCLEFVEISARQTDEHLYIVVEDDGPGIPLSKREVIFDRGQRVDTLRPGQGVGLAVAREITEQYEGKIVAGESMLGGARMEVIFGRQHSAPKDE

Variants of: B1
Experiment: enrichment ratio after two sorts for PhoP signalling (ratio (wild type AVST 3.29)); higher = more functional
Conditions: with PhoP (E. coli)
In the case of TWMR, the enrichment ratio is reported as at most 0.25. In the case of ICSV, the enrichment ratio is reported as 0.898. In the case of ATCD, the enrichment ratio is reported as at most 0.25. Work on GEKN yielded an enrichment ratio of at most 0.25. QAFS was tested, and the enrichment ratio was 2.95. Variant LSDS has an enrichment ratio of at most 0.25. VKPE gave an enrichment ratio of at most 0.25. Work on FNRT yielded an enrichment ratio of at most 0.25. Variant SKNY has an enrichment ratio of at most 0.25. In the case of TEGC, the enrichment ratio is reported as at most 0.25. WLRH showed an enrichment ratio of at most 0.25. Work on ELLS yielded an enrichment ratio of at most 0.25. In the case of FGKN, the enrichment ratio is reported as at most 0.25. IKQM gave an enrichment ratio of at most 0.25. With MPDM the enrichment ratio was at most 0.25. Variant YVFI has an enrichment ratio of at most 0.25. DDPC gave an enrichment ratio of at most 0.25. TPLW showed an enrichment ratio of at most 0.25. Work on DMGY yielded an enrichment ratio of at most 0.25. WSPL showed an enrichment ratio of at most 0.25. In the case of SFLR, the enrichment ratio is reported as at most 0.25. WKVE gave an enrichment ratio of at most 0.25. YNMA was tested, and the enrichment ratio was at most 0.25. RPLE was tested, and the enrichment ratio was at most 0.25. Work on NHKI yielded an enrichment ratio of at most 0.25. Variant YHNN has an enrichment ratio of at most 0.25. In the case of YGRP, the enrichment ratio is reported as at most 0.25. MTLC was tested, and the enrichment ratio was 5.48. Work on QYSY yielded an enrichment ratio of at most 0.25. LHKT gave an enrichment ratio of at most 0.25. For IDMG, the enrichment ratio was at most 0.25. In the case of DDKS, the enrichment ratio is reported as at most 0.25. INCE was tested, and the enrichment ratio was at most 0.25. VTFI was tested, and the enrichment ratio was at most 0.25. For PALN, the enrichment ratio was at most 0.25. With SQIW the enrichment ratio was at most 0.25. With IDHS the enrichment ratio was at most 0.25. NNWY showed an enrichment ratio of at most 0.25. In the case of PMVY, the enrichment ratio is reported as at most 0.25. Work on HLYK yielded an enrichment ratio of at most 0.25. EHII showed an enrichment ratio of at most 0.25. Variant SWWW has an enrichment ratio of at most 0.25. In the case of WYAN, the enrichment ratio is reported as at most 0.25. With YLRM the enrichment ratio was at most 0.25. GLDF showed an enrichment ratio of at most 0.25. For LISN, the enrichment ratio was at most 0.25. Work on MVRK yielded an enrichment ratio of at most 0.25. For LEDD, the enrichment ratio was at most 0.25. In the case of QDGP, the enrichment ratio is reported as at most 0.25. With QQVC the enrichment ratio was at most 0.25. In the case of WFSC, the enrichment ratio is reported as at most 0.25. Work on MVRV yielded an enrichment ratio of at most 0.25. AHSV was tested, and the enrichment ratio was at most 0.25. HRPN showed an enrichment ratio of at most 0.25. With HPKC the enrichment ratio was at most 0.25. Variant LNQG has an enrichment ratio of at most 0.25. MFDM was tested, and the enrichment ratio was at most 0.25. With TIYC the enrichment ratio was at most 0.25. HKIK was tested, and the enrichment ratio was at most 0.25. Variant RCTK has an enrichment ratio of at most 0.25. With IDHH the enrichment ratio was at most 0.25. With GSSE the enrichment ratio was at most 0.25. In the case of HGDM, the enrichment ratio is reported as at most 0.25. Work on RRET yielded an enrichment ratio of at most 0.25. DRQH was tested, and the enrichment ratio was at most 0.25. With VPMF the enrichment ratio was at most 0.25. With VTLK the enrichment ratio was at most 0.25. In the case of LWKL, the enrichment ratio is reported as at most 0.25. TMLA was tested, and the enrichment ratio was 2.72. Variant CMIY has an enrichment ratio of at most 0.25. With AEEL the enrichment ratio was at most 0.25. KTTK gave an enrichment ratio of at most 0.25. For NNDW, the enrichment ratio was at most 0.25. With VKFY the enrichment ratio was at most 0.25. With VCRF the enrichment ratio was at most 0.25. FNMM gave an enrichment ratio of 4.61. Variant MSYC has an enrichment ratio of 6.9. TMKK was tested, and the enrichment ratio was at most 0.25. MTHP was tested, and the enrichment ratio was at most 0.25. In the case of HRCH, the enrichment ratio is reported as at most 0.25. Work on PKYH yielded an enrichment ratio of at most 0.25. With VSFT the enrichment ratio was at most 0.25. Variant RYEE has an enrichment ratio of at most 0.25. ATDP gave an enrichment ratio of at most 0.25. For DGLM, the enrichment ratio was at most 0.25. For DHVR, the enrichment ratio was at most 0.25. For SLHP, the enrichment ratio was at most 0.25. For SVQC, the enrichment ratio was 4.27. Variant KYQF has an enrichment ratio of at most 0.25. LFTA showed an enrichment ratio of at most 0.25. Variant PFHW has an enrichment ratio of at most 0.25. Variant NWNP has an enrichment ratio of at most 0.25. In the case of EPPR, the enrichment ratio is reported as at most 0.25. For QHNV, the enrichment ratio was at most 0.25. For TEHL, the enrichment ratio was 12.5. EHKH showed an enrichment ratio of at most 0.25. With VIDC the enrichment ratio was at most 0.25. Variant GTHD has an enrichment ratio of at most 0.25. TMTR gave an enrichment ratio of at most 0.25. For TKYN, the enrichment ratio was at most 0.25. In the case of HHDD, the enrichment ratio is reported as at most 0.25. For AKIY, the enrichment ratio was 6.04. KVFP was tested, and the enrichment ratio was at most 0.25. With EYFC the enrichment ratio was at most 0.25. AGII was tested, and the enrichment ratio was 33.2. In the case of IVNM, the enrichment ratio is reported as at most 0.25. KIYD gave an enrichment ratio of at most 0.25. For ERTI, the enrichment ratio was at most 0.25. WCRA showed an enrichment ratio of at most 0.25. Work on DGNF yielded an enrichment ratio of at most 0.25. Work on AEDC yielded an enrichment ratio of at most 0.25. In the case of PGHR, the enrichment ratio is reported as at most 0.25. With WNLH the enrichment ratio was 0.602. For LMIG, the enrichment ratio was at most 0.25. In the case of SLCR, the enrichment ratio is reported as 8.12. Variant PLDV has an enrichment ratio of at most 0.25. With SWIV the enrichment ratio was at most 0.25. With NCLG the enrichment ratio was 0.394. ITML showed an enrichment ratio of 8.63. NDEG was tested, and the enrichment ratio was at most 0.25. PSEV was tested, and the enrichment ratio was at most 0.25. YNMH was tested, and the enrichment ratio was 0.275. NCAM showed an enrichment ratio of at most 0.25. IGFT was tested, and the enrichment ratio was at most 0.25. QPWH gave an enrichment ratio of at most 0.25. HHCP was tested, and the enrichment ratio was at most 0.25. Work on FSPR yielded an enrichment ratio of at most 0.25. NHYQ gave an enrichment ratio of at most 0.25. WYSL was tested, and the enrichment ratio was at most 0.25. VCWL gave an enrichment ratio of at most 0.25. Work on NNGA yielded an enrichment ratio of at most 0.25. With PLQD the enrichment ratio was at most 0.25. In the case of YVMR, the enrichment ratio is reported as at most 0.25. Variant DTSS has an enrichment ratio of at most 0.25. In the case of SQSP, the enrichment ratio is reported as at most 0.25. For EFAM, the enrichment ratio was at most 0.25. In the case of FLYE, the enrichment ratio is reported as at most 0.25. HQLI showed an enrichment ratio of at most 0.25. MRHI showed an enrichment ratio of at most 0.25. In the case of PTVE, the enrichment ratio is reported as at most 0.25. Variant FQFH has an enrichment ratio of at most 0.25. FPFD gave an enrichment ratio of at most 0.25. With YMSK the enrichment ratio was at most 0.25. For PGHG, the enrichment ratio was at most 0.25. Variant DSQQ has an enrichment ratio of at most 0.25. Variant SEEQ has an enrichment ratio of at most 0.25. Work on SVTN yielded an enrichment ratio of 16.4. Variant KMDW has an enrichment ratio of at most 0.25. For KKHM, the enrichment ratio was at most 0.25. HMRW showed an enrichment ratio of at most 0.25. Variant KSQP has an enrichment ratio of at most 0.25. Variant KSWM has an enrichment ratio of at most 0.25. Variant PSMA has an enrichment ratio of at most 0.25.
